Source: patent publication US20110319597A1 (CAPHALON AUSTRALIA, published 2011)

B1: TNFα dAb Fc variant V58P (Fc fusion, name in Kabat numbering)
chain: DIQMTQSPSSLSASVGDRVTITCRASQAIDSYLHWYQQKPGKAPKLLIYSASNLETGPPSRFSGSGSGTDFTLTISSLLPEDFATYYCQQVVWRPFTFGQGTKVEIKRV[human IgG1 Fc with changes left out]
B2: TNFα dAb Fc variant Y86K (Fc fusion, name in Kabat numbering)
chain: DIQMTQSPSSLSASVGDRVTITCRASQAIDSYLHWYQQKPGKAPKLLIYSASNLETGVPSRFSGSGSGTDFTLTISSLLPEDFATKYCQQVVWRPFTFGQGTKVEIKRV[human IgG1 Fc with changes left out]
B3: TNFα dAb Fc variant V58Y (Fc fusion, name in Kabat numbering)
chain: DIQMTQSPSSLSASVGDRVTITCRASQAIDSYLHWYQQKPGKAPKLLIYSASNLETGYPSRFSGSGSGTDFTLTISSLLPEDFATYYCQQVVWRPFTFGQGTKVEIKRV[human IgG1 Fc with changes left out]
B4: TNFα dAb Fc variant Y36D (Fc fusion, name in Kabat numbering)
chain: DIQMTQSPSSLSASVGDRVTITCRASQAIDSYLHWDQQKPGKAPKLLIYSASNLETGVPSRFSGSGSGTDFTLTISSLLPEDFATYYCQQVVWRPFTFGQGTKVEIKRV[human IgG1 Fc with changes left out]
B5: TNFα dAb Fc variant Y86A (Fc fusion, name in Kabat numbering)
chain: DIQMTQSPSSLSASVGDRVTITCRASQAIDSYLHWYQQKPGKAPKLLIYSASNLETGVPSRFSGSGSGTDFTLTISSLLPEDFATAYCQQVVWRPFTFGQGTKVEIKRV[human IgG1 Fc with changes left out]
B6: TNFα dAb Fc variant V58Q (Fc fusion, name in Kabat numbering)
chain: DIQMTQSPSSLSASVGDRVTITCRASQAIDSYLHWYQQKPGKAPKLLIYSASNLETGQPSRFSGSGSGTDFTLTISSLLPEDFATYYCQQVVWRPFTFGQGTKVEIKRV[human IgG1 Fc with changes left out]
B7: TNFα dAb Fc variant Y36A (Fc fusion, name in Kabat numbering)
chain: DIQMTQSPSSLSASVGDRVTITCRASQAIDSYLHWAQQKPGKAPKLLIYSASNLETGVPSRFSGSGSGTDFTLTISSLLPEDFATYYCQQVVWRPFTFGQGTKVEIKRV[human IgG1 Fc with changes left out]
B8: TNFα dAb Fc variant Y36Q (Fc fusion, name in Kabat numbering)
chain: DIQMTQSPSSLSASVGDRVTITCRASQAIDSYLHWQQQKPGKAPKLLIYSASNLETGVPSRFSGSGSGTDFTLTISSLLPEDFATYYCQQVVWRPFTFGQGTKVEIKRV[human IgG1 Fc with changes left out]
B9: TNFα dAb Fc variant V58S (Fc fusion, name in Kabat numbering)
chain: DIQMTQSPSSLSASVGDRVTITCRASQAIDSYLHWYQQKPGKAPKLLIYSASNLETGSPSRFSGSGSGTDFTLTISSLLPEDFATYYCQQVVWRPFTFGQGTKVEIKRV[human IgG1 Fc with changes left out]
B10: TNFα dAb Fc variant Y86S (Fc fusion, name in Kabat numbering)
chain: DIQMTQSPSSLSASVGDRVTITCRASQAIDSYLHWYQQKPGKAPKLLIYSASNLETGVPSRFSGSGSGTDFTLTISSLLPEDFATSYCQQVVWRPFTFGQGTKVEIKRV[human IgG1 Fc with changes left out]
B11: TNFα dAb Fc variant Y86D (Fc fusion, name in Kabat numbering)
chain: DIQMTQSPSSLSASVGDRVTITCRASQAIDSYLHWYQQKPGKAPKLLIYSASNLETGVPSRFSGSGSGTDFTLTISSLLPEDFATDYCQQVVWRPFTFGQGTKVEIKRV[human IgG1 Fc with changes left out]
B12: TNFα dAb Fc variant Y86L (Fc fusion, name in Kabat numbering)
chain: DIQMTQSPSSLSASVGDRVTITCRASQAIDSYLHWYQQKPGKAPKLLIYSASNLETGVPSRFSGSGSGTDFTLTISSLLPEDFATLYCQQVVWRPFTFGQGTKVEIKRV[human IgG1 Fc with changes left out]
B13: TNFα dAb Fc variant Y86P (Fc fusion, name in Kabat numbering)
chain: DIQMTQSPSSLSASVGDRVTITCRASQAIDSYLHWYQQKPGKAPKLLIYSASNLETGVPSRFSGSGSGTDFTLTISSLLPEDFATPYCQQVVWRPFTFGQGTKVEIKRV[human IgG1 Fc with changes left out]
B14: TNFα dAb Fc variant Y36P (Fc fusion, name in Kabat numbering)
chain: DIQMTQSPSSLSASVGDRVTITCRASQAIDSYLHWPQQKPGKAPKLLIYSASNLETGVPSRFSGSGSGTDFTLTISSLLPEDFATYYCQQVVWRPFTFGQGTKVEIKRV[human IgG1 Fc with changes left out]
B15: TNFα dAb Fc variant Y86H (Fc fusion, name in Kabat numbering)
chain: DIQMTQSPSSLSASVGDRVTITCRASQAIDSYLHWYQQKPGKAPKLLIYSASNLETGVPSRFSGSGSGTDFTLTISSLLPEDFATHYCQQVVWRPFTFGQGTKVEIKRV[human IgG1 Fc with changes left out]
B16: TNFα dAb Fc variant Y36L (Fc fusion, name in Kabat numbering)
chain: DIQMTQSPSSLSASVGDRVTITCRASQAIDSYLHWLQQKPGKAPKLLIYSASNLETGVPSRFSGSGSGTDFTLTISSLLPEDFATYYCQQVVWRPFTFGQGTKVEIKRV[human IgG1 Fc with changes left out]
B17: TNFα dAb Fc variant Y36S (Fc fusion, name in Kabat numbering)
chain: DIQMTQSPSSLSASVGDRVTITCRASQAIDSYLHWSQQKPGKAPKLLIYSASNLETGVPSRFSGSGSGTDFTLTISSLLPEDFATYYCQQVVWRPFTFGQGTKVEIKRV[human IgG1 Fc with changes left out]
B18: TNFα dAb Fc variant Y86Q (Fc fusion, name in Kabat numbering)
chain: DIQMTQSPSSLSASVGDRVTITCRASQAIDSYLHWYQQKPGKAPKLLIYSASNLETGVPSRFSGSGSGTDFTLTISSLLPEDFATQYCQQVVWRPFTFGQGTKVEIKRV[human IgG1 Fc with changes left out]
B19: TNFα dAb Fc variant Y36H (Fc fusion, name in Kabat numbering)
chain: DIQMTQSPSSLSASVGDRVTITCRASQAIDSYLHWHQQKPGKAPKLLIYSASNLETGVPSRFSGSGSGTDFTLTISSLLPEDFATYYCQQVVWRPFTFGQGTKVEIKRV[human IgG1 Fc with changes left out]
B20: TNFα dAb Fc variant Y49P (Fc fusion, name in Kabat numbering)
chain: DIQMTQSPSSLSASVGDRVTITCRASQAIDSYLHWYQQKPGKAPKLLIPSASNLETGVPSRFSGSGSGTDFTLTISSLLPEDFATYYCQQVVWRPFTFGQGTKVEIKRV[human IgG1 Fc with changes left out]
B21: TNFα dAb Fc variant Y36K (Fc fusion, name in Kabat numbering)
chain: DIQMTQSPSSLSASVGDRVTITCRASQAIDSYLHWKQQKPGKAPKLLIYSASNLETGVPSRFSGSGSGTDFTLTISSLLPEDFATYYCQQVVWRPFTFGQGTKVEIKRV[human IgG1 Fc with changes left out]

Biological target: T1, recombinant human TNFα (CytoLab) (human, UniProt P01375 in part)
T1 construct: coated on the ELISA plate at 1 µg/ml; also called Tumour necrosis factor alpha
T1 sequence (P01375 77-233 limits assumed): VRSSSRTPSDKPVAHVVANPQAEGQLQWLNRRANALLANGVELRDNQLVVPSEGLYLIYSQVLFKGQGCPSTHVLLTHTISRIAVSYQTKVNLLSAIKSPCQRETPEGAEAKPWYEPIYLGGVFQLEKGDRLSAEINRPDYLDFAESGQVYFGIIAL
Test: ELISA on coated human TNFα

In order of rising “A450 (AU)” value:
1. B19  0.149 AU
2. B5  0.153 AU
3. B8  0.167 AU
4. B4  0.168 AU
5. B10  0.18 AU
6. B13  0.182 AU
7. B2  0.185 AU
8. B7  0.185 AU
9. B20  0.188 AU
10. B11  0.194 AU
11. B18  0.204 AU
12. B12  0.205 AU
13. B6  0.207 AU
14. B15  0.212 AU
15. B16  0.237 AU
16. B14  0.243 AU
17. B3  0.247 AU
18. B1  0.255 AU
19. B17  0.263 AU
20. B21  0.378 AU
21. B9  0.399 AU
